In PubChem BioAssay AID504332 (National Center for Advancing Translational Sciences (NCATS), 2011):
“And” between values parts separate entries of the source, which are not always exact repeats. Equal entries are not always repeated. Among all 350,000 compounds or so, about 31,000 (8.9%) were called active. Inconclusive results, whose numbers are uncertain, are shown with a selection of clear calls. Calls follow the shape of the dose curve; as a rule, active = well fitted inhibition curve with a large enough effect; inconclusive = small, poorly fitted or top-dose-only effect; inactive = no such curve, though single readings can be large or run the other way. Where the call is inconclusive, the potency comes from a doubtful curve fit.

biological target: Histone-lysine N-methyltransferase EHMT2 (Homo sapiens) (UniProt Q96KQ7); test: qHTS Assay for Inhibitors of Histone Lysine Methyltransferase G9a; details: G9a H3K9 monomethylation, AlphaScreen, 2 h; activity, negative = inhibition: at 59 µM (top of the series) unless noted; also: nearly all actives have a fitted effect of over 75% in size
UniProt Q96KQ7, sequence (Q96KQ7 whole entry, looked up): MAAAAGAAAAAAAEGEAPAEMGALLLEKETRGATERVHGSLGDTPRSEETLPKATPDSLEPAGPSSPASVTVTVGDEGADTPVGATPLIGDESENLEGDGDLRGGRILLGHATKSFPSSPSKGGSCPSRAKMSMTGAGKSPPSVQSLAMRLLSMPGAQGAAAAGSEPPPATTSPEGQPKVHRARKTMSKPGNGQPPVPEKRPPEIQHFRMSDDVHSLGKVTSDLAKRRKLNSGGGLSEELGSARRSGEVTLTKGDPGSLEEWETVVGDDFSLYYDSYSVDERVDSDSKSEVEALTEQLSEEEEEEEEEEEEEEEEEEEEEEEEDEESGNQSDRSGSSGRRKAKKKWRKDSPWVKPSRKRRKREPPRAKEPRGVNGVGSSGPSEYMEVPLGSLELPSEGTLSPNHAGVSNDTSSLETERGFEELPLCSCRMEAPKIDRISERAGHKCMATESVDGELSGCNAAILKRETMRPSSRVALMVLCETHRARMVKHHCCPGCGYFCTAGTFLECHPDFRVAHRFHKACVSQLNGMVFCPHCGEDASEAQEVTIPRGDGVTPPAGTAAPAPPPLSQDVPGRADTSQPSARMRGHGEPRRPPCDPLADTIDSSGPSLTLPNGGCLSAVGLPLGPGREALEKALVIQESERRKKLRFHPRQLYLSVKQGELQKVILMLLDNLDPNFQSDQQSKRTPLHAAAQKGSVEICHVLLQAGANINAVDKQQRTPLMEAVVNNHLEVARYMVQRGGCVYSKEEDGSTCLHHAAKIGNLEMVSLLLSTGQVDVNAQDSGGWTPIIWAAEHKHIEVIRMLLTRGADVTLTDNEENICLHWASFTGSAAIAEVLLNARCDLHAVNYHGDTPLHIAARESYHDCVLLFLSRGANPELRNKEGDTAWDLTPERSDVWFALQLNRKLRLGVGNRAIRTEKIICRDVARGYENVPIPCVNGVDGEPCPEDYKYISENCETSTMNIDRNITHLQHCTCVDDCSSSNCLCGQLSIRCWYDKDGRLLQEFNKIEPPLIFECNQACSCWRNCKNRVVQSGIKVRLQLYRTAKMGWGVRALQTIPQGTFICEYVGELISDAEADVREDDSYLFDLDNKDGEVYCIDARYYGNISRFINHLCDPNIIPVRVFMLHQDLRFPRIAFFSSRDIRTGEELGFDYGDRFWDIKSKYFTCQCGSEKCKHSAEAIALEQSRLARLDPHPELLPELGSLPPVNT
Method in brief: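 Step 1: enzyme (final 20 nM) with compound, 15 min RT. Step 2: substrate peptide 500 nM and SAM 20 uM, 2 h RT. Step 3: anti-H3K9me1 antibody and AlphaScreen beads, 10 min, then plate read.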
% is scaled to controls: 0 for no effect and ±100 for the full control effect; potency is read from the fitted curve at half-maximal effect; tags tell the direction and shape of the fitted curve.

Row | SMILES | Potency | activity, negative = inhibition
1 | O=C(NC1CCCCCC1)C1c2ccccc2C(=O)N1Cc1ccco1 (stereo not given) | inconclusive: 22.4 µM [inhibitor, partial curve, poor fit] | –
2 | Cc1cc(CN2CCN(c3ccccc3F)CC2)cs1 | inconclusive: 20 µM [inhibitor, partial curve, poor fit] | –
3 | CCOc1ccc(CCNS(=O)(=O)c2cn(C)cn2)cc1OCC | – | inactive: 52.2% [at 102 µM]
4 | COc1ccc(CNC(=O)c2cc(C3CC3)nc3c2cnn3C(C)C)cc1 | inconclusive: 31.6 µM [inhibitor, single point] | –
5 | O=C(CSc1nc2sc3c(c2c(=O)n1-c1ccccc1)CCCC3)N/N=C/c1ccccc1C(=O)O | active: 79.4 µM | –
6 | COc1ccc2cc(C(c3nnnn3C(C)(C)C)N3CCc4ccccc4C3)c(=O)[nH]c2c1 (stereo not given) | inconclusive: 28.2 µM [inhibitor, single point] | –
7 | CCc1sc(NC(C)=O)nc1-c1ccccc1 | – | inactive: -16.6% [at 102 µM]
8 | CC(C)COn1c(=S)[nH]c2ccccc2c1=O | inconclusive: 3.55 µM [inhibitor, single point] | –
9 | CN(C)C(=O)CSc1nc2ccccc2n1CC(=O)N1CCN(c2ccccc2)CC1 | – | inactive: 12.6%
10 | Cc1nc2sccn2c(=O)c1S(=O)(=O)Nc1ccc(N2CCOCC2)c(Cl)c1 | – | inactive: -5.08%
11 | CC(=O)NC(CCS(C)(=O)=O)C(=O)Nc1ccc2c(c1)OCO2 (stereo not given) | inconclusive: 79.4 µM [inhibitor, single point] | –
12 | Cc1ccc(Cn2c(C(=O)NCc3ccccc3Cl)cc3sccc32)cc1 | inconclusive: 39.8 µM [inhibitor, partial curve, poor fit] | –
13 | CC(C)(C)c1cc[n+](/C(C(=S)Nc2ccccc2F)=C(/[O-])c2ccc3c(c2)OCCO3)cc1 | inconclusive: 1 µM [inhibitor, full curve, poor fit] | –
14 | O=C(O)COc1ccc(C(=O)c2ccccc2)cc1 | – | inactive: -30.6% [at 102 µM]
15 | CC(C)(C)c1ccc(-c2nnc3sc(-c4ccncc4)nn23)cc1 | active: 2.51 µM | –
16 | Cc1ccc(/C=C/C(=O)NCc2ccc(S(N)(=O)=O)cc2)o1 | active: 2 µM | –
17 | CCC(=O)N1CCc2cc(S(=O)(=O)CCC(=O)O)ccc21 | inconclusive: 89.1 µM [inhibitor, partial curve, poor fit] | –
18 | COc1ccc(C(=O)[C@@H]2CC[C@](C)(C(=O)O)C2(C)C)cc1 | – | inactive: 21.6% [at 2.33 µM]
19 | Cc1nc(CN(C)C(=O)c2cc(COc3ccc4ncccc4c3)on2)cs1 | inconclusive: 70.8 µM [inhibitor, single point] | –
20 | COc1ccc(-c2cccc(C(=O)NCC(=O)O)c2)cc1 | inconclusive: 89.1 µM [inhibitor, single point] | –
21 | Cc1cccc(-[n+]2c(C)cc(C)c3c(=O)[nH]c(=O)[nH]c32)c1 | active: 50.1 µM | –
22 | Cc1ccccc1C(C(=O)NCc1ccccc1)N(Cc1ccco1)C(=O)c1ccccn1 (stereo not given) | inconclusive: 89.1 µM [inhibitor, single point] | –
23 | Cc1ccc(NC(=O)C2CCN(S(=O)(=O)c3c(C)n[nH]c3C)CC2)c(C)c1 | inconclusive: 89.1 µM [inhibitor, partial curve, poor fit] | –
24 | Cc1cc(C)nc(/N=C(\NC(=O)C(C)(C)C)Nc2ccc(F)cc2)n1 | active: 44.7 µM | –

Row | SMILES | Potency | activity, negative = inhibition
25 | COc1ccccc1NC(=S)N1CCN(c2nc(-c3ccccc3)cs2)CC1 | inconclusive: 39.8 µM [inhibitor, partial curve, poor fit] | –
26 | CN(c1ccccc1)c1nc(N)c([N+](=O)[O-])c(NC2CCCCC2)n1 | – | inactive: -10.5% [at 102 µM]
27 | CSC1=N/C(=C\c2ccccc2F)C(=O)S1 | active: 44.7 µM | –
28 | Cc1[nH][nH]c(=O)c1C(c1c(C)[nH][nH]c1=O)c1cn(Cc2ccc(F)cc2)c2ccccc12 | active: 8.91 µM | –
29 | CCN(CC)CCNC(=O)C1CCN(c2nn3cc(-c4ccc(F)cc4)nc3s2)CC1 | inconclusive: 31.6 µM [inhibitor, partial curve, poor fit] | –
30 | Cc1cccn2c(=O)c(C(=O)NCc3ccc(F)cc3)c(O)nc12 | – | inactive: 9.07%
31 | Cc1ccc2cc(C#N)c(N3CCCN(S(=O)(=O)c4ccccc4)CC3)nc2c1 | inconclusive: 89.1 µM [inhibitor, single point] | –
32 | Cc1ccc2nc(Cl)c(C3CC(c4ccco4)=NN3C(=O)CCCC(=O)O)cc2c1 (stereo not given) | inconclusive: 70.8 µM [inhibitor, single point] | –
33 | COCCn1nnnc1C(c1cccc(C(F)(F)F)c1)N1CCN(Cc2ccccc2)CC1 (stereo not given) | active: 50.1 µM | –
34 | O=C(NCCc1nc2ccccc2[nH]1)/C(=C/c1ccco1)NC(=O)c1ccc(Br)o1 | inconclusive: 79.4 µM [inhibitor, single point] | –
35 | Cc1ccc(S(=O)(=O)Nc2c(C(=O)O)[nH]c3ccccc23)c(C)c1 | inconclusive: 50.1 µM [inhibitor, partial curve, poor fit] | –
36 | Cc1cc(C)nc(NNS(=O)(=O)c2c(C)cc(C(C)(C)C)cc2C)n1 | inconclusive: 56.2 µM [inhibitor, partial curve, poor fit] | –
37 | Cc1nc(SCC(=O)NCC2CCCO2)c2c3c(sc2n1)CCCC3 (stereo not given) | inconclusive: 79.4 µM [inhibitor, single point] | –
38 | ClCc1ncc(-c2ccc(Cl)cc2)o1 | inconclusive: 89.1 µM [inhibitor, single point] | –
39 | O=c1[nH]c2ccsc2c(=O)n1CCO | – | inactive: 21.8% [at 102 µM]
40 | CN(Cc1ccco1)C(=O)CCc1nc2sc3c(c2c(=O)[nH]1)CCCC3 | active: 79.4 µM | –
41 | Cc1cc(-c2csc(NC(=O)c3ccc(C#N)cc3)n2)c(C)n1Cc1ccccc1 | active: 44.7 µM | –
42 | COCCn1c(N)c(N(Cc2ccccc2)C(=O)c2ccc(-c3ccc(Cl)cc3)o2)c(=O)[nH]c1=O | inconclusive: 31.6 µM [inhibitor, partial curve, poor fit] | –
43 | O=C1OC(/C=C/c2ccc(Cl)cc2Cl)=NC/1=C\c1cccs1 | – | inactive: -19.7%
44 | COc1ccc(NC(=O)CN2C(=O)/C(=C3\SC(=S)N(CCC(=O)O)C3=O)c3ccccc32)cc1 | – | inactive: 4.99% [at 102 µM]
45 | O=C(/C=C/c1ccc(F)cc1)c1ccccc1Br | – | inactive: -0.156% [at 102 µM]
46 | Fc1ccc([C@@H]2CCNC[C@H]2COc2ccc3c(c2)OCO3)cc1 | active: 35.5 µM and active: 23.8 µM | –
47 | CCOc1ccc(-c2nc(N)ncc2-c2ccc(OC)cc2)c(O)c1 | inconclusive: 79.4 µM [inhibitor, partial curve, poor fit] | –
48 | O=C(/C=C/c1ccccc1)NNC1=NS(=O)(=O)c2ccccc21 | inconclusive: 44.7 µM [inhibitor, partial curve, poor fit] | –

Row | SMILES | Potency | activity, negative = inhibition
49 | Cc1ccc2oc3nc(C)c(C(=O)O)cc3c(=O)c2c1 | inconclusive: 89.1 µM [inhibitor, single point] | –
50 | CC(=O)c1ccc(N2CCN(C(=O)Cc3cccs3)CC2)cc1 | inconclusive: 89.1 µM [inhibitor, partial curve, poor fit] | –
51 | COc1cc(NC(=O)c2cccc3c2C(=O)N(C2CCCCC2)C3)cc(OC)c1OC | inconclusive: 20 µM [inhibitor, partial curve, poor fit] | –
52 | Cc1ccc(C(C)C)c(OCC(=O)N2CCN(c3ncccn3)CC2)c1 | inconclusive: 6.31 µM [inhibitor, single point] | –
53 | COC(=O)Cc1ccc(O)c(N)c1 | – | inconclusive: -64.2% [inhibitor]
54 | CCC(C(=O)Nc1sc(C(N)=O)c(C)c1C(=O)OC)c1ccccc1 (stereo not given) | inconclusive: 89.1 µM [inhibitor, single point] | –
55 | Cc1sc2ncnc(NCC(c3ccco3)N(C)C)c2c1C (stereo not given) | – | inactive: 5.28%
56 | Cc1cccc(NC(=O)c2ccc(-n3cnc4cccnc43)cc2)c1C | – | inactive: -10.1%
57 | COc1cccc(/C=C2\SC(=S)N(C(Cc3ccccc3)C(=O)O)C2=O)c1 (stereo not given) | active: 44.7 µM | –
58 | Nc1nc(CSc2nc3ccccc3s2)nc(N2CCOCC2)n1 | – | inactive: 12.3% [at 102 µM]
59 | CCN(CC)c1ccc(NC(=O)c2nc3nc(C)cc(C(F)F)n3n2)cc1 | inconclusive: 12.6 µM [inhibitor, partial curve, poor fit] | –
60 | Cc1ccc(N2CC(NC(=O)c3cccs3)CC2=O)cc1C (stereo not given) | inconclusive: 6.31 µM [inhibitor, single point] | –
61 | CCCCN1C(=O)C(=O)N(CC(=O)Nc2cccc(C(C)=O)c2)C1=O | inconclusive: 1.58 µM [inhibitor, single point] | –
62 | Cn1c(C(=O)Nc2cccc(C(F)(F)F)c2)cc2c(=O)n3ccccc3nc21 | – | inactive: -32.2%
63 | CCN1CCN(c2ncnc3c2cnn3-c2ccc(Cl)cc2)CC1 | – | inconclusive: -53.6% [inhibitor]
64 | CN(C)/C=C1\C=C(c2ccccc2)OC1=O | active: 39.8 µM | –
65 | N#CCc1ccc(NC(=O)c2ccc(CN3CCc4ccccc4C3)cc2)cc1 | inconclusive: 89.1 µM [inhibitor, single point] | –
66 | Cc1ccc(NC(=S)N2CCN(S(=O)(=O)c3c(F)cccc3F)CC2)cc1C | inconclusive: 11.2 µM [inhibitor, partial curve, poor fit] | –
67 | CCOC(=O)C1=C(c2ccccc2)NC(SC)=C(C#N)C1c1ccco1 (stereo not given) | active: 44.7 µM | –
68 | CN(C(=O)c1ccc(Cl)cc1)C1=CCCCC1CCC#N (stereo not given) | inconclusive: 1 µM [inhibitor, full curve, poor fit] | –
69 | C#Cc1ccc([C@@H]2C=C(C(=O)O)O[C@H](OCc3ccc(CO)cc3)C2)cc1 | – | inconclusive: -88.2% [inhibitor]
70 | CN(CC(=O)Nc1ccc(Cl)c(Cl)c1)C(=O)CN1C(=O)NC2(CCCC2)C1=O | inconclusive: 89.1 µM [inhibitor, partial curve, poor fit] | –
